Measurements reported in the supplement of paper PMC4723716.
± gives the uncertainty stated by the source. Over roughly 9,900 compounds, “viability index relative to DMSO control” has its median near 1; the lowest 2% begin near 0.85. The list shows a part of the results.

Test system: Plasmodium falciparum NF54 stage V gametocytes
Assay: viability index relative to DMSO control (fraction); higher = less gametocyte killing
Conditions: 2.5 µM, incubation time: 72 h
Summary of the method: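 Compound at 2.5 µM was incubated for 72 hr at 37°C under low oxygen with P. falciparum NF54 stage V gametocytes (0.75% gametocytemia, 1.25% hematocrit, 10 µl, serum-free screening medium) in 1,536-well plates. Staining used 3 µl of 2.5 µM MitoTracker Red CMXRos plus 0.13% saponin for one to two hours, and red particles of 20–70 µm2 were counted in one imaged field per well. Each viability index is that count relative to the plate mean of solvent-only wells.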

[1] = library set: Broad Institute DOS

Compound	viability index [1]	viability index (library set: Broad Institute Blood Stage)
CN1C(=O)c2cc(NC(=O)Cc3cccs3)ccc2OC[C@@H]2O[C@H](CC(=O)NCCCN3CCOCC3)CC[C@@H]21	1.17 ± 0.11	–
O=C(C[C@H]1CC[C@H]2[C@@H](COC[C@@H](O)CN2C(=O)c2cc(Cl)cc(Cl)c2)O1)N1CCc2ccccc2C1	1.018 ± 0.0091	–
C[C@@H]1CN([C@@H](C)CO)C(=O)c2cc(NC(=O)Nc3ccc4c(c3)OCO4)ccc2O[C@@H](C)CCCCO[C@@H]1CN(C)C(=O)CCCN(C)C	1.08 ± 0.023	–
CO[C@H]1CN(C)C(=O)c2cc(NS(C)(=O)=O)ccc2OC[C@H](C)N(C(=O)C2CCOCC2)C[C@@H]1C	1.14 ± 0.061	–
C(=C\c1ccc([C@H]2[C@@H]3CN(Cc4ccc5c(c4)OCO5)C[C@H]2N3)cc1)/c1ccccc1	1.01 ± 0.032	–
C/C=C/c1ccc([C@H]2[C@H](CO)N[C@H]2CN(CC(C)C)C(=O)c2ccccn2)cc1	0.962 ± 0.042	–
CCCNC(=O)N1CC(=O)N2[C@@H](CO)[C@H](c3ccc(C#Cc4cccc(OC)c4)cc3)[C@@H]2C1	1 ± 0.028	–
O=C(Nc1cccc(F)c1)N1CCCCN2[C@@H](CO)[C@@H](c3ccc(C#Cc4cccnc4)cc3)[C@@H]2C1	0.979 ± 0.089	–
COc1ccc(S(=O)(=O)N(C)C[C@H]2Oc3c(NC(=O)c4nc5ccccc5s4)cccc3C(=O)N([C@@H](C)CO)C[C@H]2C)cc1	0.901 ± 0.025	–
CO[C@@H]1CN(C)C(=O)c2cc(NS(=O)(=O)c3cn(C)cn3)ccc2OC[C@@H](C)NC[C@H]1C	1.01 ± 0.095	–
CC(C)(C)[S@@](=O)N1Cc2cc(C(=O)NCCc3ccncc3)nc(-c3cccc(-c4ccccc4)c3)c2[C@H]1CCO	–	0.763 ± 0.047
COc1cccc(CN2C[C@@]3(C2)CN([C@@H](CO)c2[nH]c4cc(OC)ccc4c32)C(=O)C2CC2)c1	0.956 ± 0.11	–
CC(=O)N1[C@@H](CO)[C@@H](c2ccccc2)C12CN(S(=O)(=O)c1ccccc1)C2	1.08 ± 0.14	–
C[C@H]1CN([C@@H](C)CO)C(=O)CCCn2cc(nn2)CO[C@@H]1CN(C)C(=O)Nc1ccc2c(c1)OCO2	0.999 ± 0.0048	–
CN1C(=O)c2cc(NC(=O)c3ccc4c(c3)OCO4)ccc2OC[C@@H]2O[C@@H](CC(=O)O)CC[C@@H]21	1.13 ± 0.028	–
O=C(N[C@H]1CC[C@@H](CCNS(=O)(=O)c2ccc(F)cc2)O[C@@H]1CO)C1CCC1	1.15 ± 0.12	–
COc1ccc2c3c([C@@H](CO)N(C[C@]33CN(C)C3)C(=O)Cc3ccccc3)n(C)c2c1	0.9755 ± 0.00056	–
COc1ccccc1-c1ccc([C@H]2[C@@H](CO)N(C(C)=O)[C@@H]2CN(C)C(C)=O)cc1	0.9746 ± 0.009	–
O=C(C[C@H]1C[C@H]2c3cc(NC(=O)NC4CCCC4)ccc3O[C@H]2[C@@H](CO)O1)NCc1ccccc1F	1.15 ± 0.051	–
CO[C@@H](CN(C)C(=O)Nc1ccc(Cl)cc1)[C@@H](C)CN(Cc1ccccc1Cl)[C@@H](C)CO	1.01 ± 0.074	–
Cc1noc(C)c1NC(=O)Nc1ccc2c(c1)C(=O)N([C@H](C)CO)C[C@H](C)[C@@H](CN(C)Cc1ccc3c(c1)OCO3)OCCCC[C@H](C)O2	1.05 ± 0.064	–
Cc1ccc(S(=O)(=O)Nc2ccc3c(c2)CC(=O)N([C@H](C)CO)C[C@H](C)[C@@H](CN(C)S(=O)(=O)c2ccccc2)O3)cc1	0.936 ± 0.055	–
O=C(C1CCOCC1)N1CC2(C1)[C@@H](c1ccccc1)[C@@H](CO)N2Cc1ccccc1F	1.01 ± 0.024	–
CCC(=O)N1C[C@@H](C)[C@@H](OC)CN(C)C(=O)c2ccc(NC(=O)CC(F)(F)F)cc2OC[C@@H]1C	1.11 ± 0.03	–

Compound	viability index [1]	viability index (library set: Broad Institute Blood Stage)
CC1C=NC(S(=O)(=O)N2CC[C@@H]3[C@@H](CO)N(C)c4ccc(C5=CCCCC5)cc4[C@@H]32)=N1 (stereo not given in full)	1.019 ± 0.0095	–
CCCNC(=O)N1[C@@H](CO)[C@@H](c2ccccc2)C12CN(C(=O)C1CCCCC1)C2	1.08 ± 0.041	–
C[C@H]1CN([C@@H](C)CO)C(=O)c2cccc(NS(=O)(=O)c3cn(C)cn3)c2O[C@@H]1CN(C)Cc1ccc(Oc2ccccc2)cc1	1.01 ± 0.15	–
CS(=O)(=O)N1CC(=O)N2[C@H](C1)[C@@H](c1ccc(Br)cc1)[C@@H]2CO	1 ± 0.062	–
O=C(NCCCN1CCOCC1)[C@@H]1[C@@H](CO)[C@@H]2Cn3c(ccc(C4=CCCCC4)c3=O)[C@H]1N2	1.03 ± 0.1	–
CCN1CC(=O)N2[C@@H](CO)[C@H](c3ccc(Br)cc3)[C@@H]2C1	1.02 ± 0.11	–
COc1ccc2c3c([nH]c2c1)[C@@H](CO)N(C[C@]31CCN(Cc2ccncc2)CC1)C(=O)CC1CC1	0.998 ± 0.12	–
C[C@@H]1CN([C@@H](C)CO)C(=O)c2ccccc2-c2ccccc2CO[C@H]1CN(C)Cc1ccccc1C(F)(F)F	0.883 ± 0.044	–
COc1ccc(C#Cc2cccc(-c3nc(C(=O)N4CCN(Cc5ccccc5)CC4)cc4c3[C@H](CCO)N(S(=O)C(C)(C)C)C4)c2)cc1OC (stereo not given in full)	1.04 ± 0.11	–
COc1ccc(S(=O)(=O)N(C)C[C@H]2OCCCC[C@@H](C)Oc3ccc(NC(=O)Cc4ccccc4)cc3C(=O)N([C@@H](C)CO)C[C@H]2C)cc1	0.773 ± 0.061	–
C[C@H]1CN([C@@H](C)CO)C(=O)c2cc(NC(=O)C3CCCCC3)ccc2O[C@@H]1CN(C)Cc1ccc2c(c1)OCO2	1.01 ± 0.036	–
C[C@H](NC(=O)C[C@@H]1CC[C@H]2[C@@H](COC[C@@H](O)CN2Cc2ccc(C(F)(F)F)cc2)O1)c1ccccc1	1.017 ± 0.0018	–
COc1ccc2c3c([C@H](CO)N(C[C@]33CN(Cc4ccccc4OC)C3)C(=O)C3CC3)n(C)c2c1	0.9565 ± 0.0033	–
COc1ccc(S(=O)(=O)Nc2ccc3c(c2)C(=O)N([C@H](C)CO)C[C@@H](C)[C@H](CN(C)C(=O)Nc2c(C)noc2C)OCCCC[C@@H](C)O3)cc1	1.05 ± 0.011	–
COc1ccccc1-c1ccc([C@H]2[C@@H](CO)N(C(C)=O)[C@H]2CN(C)C(C)=O)cc1	1.03 ± 0.028	–
N#C[C@@H]1[C@H](c2ccccc2-c2cccc(F)c2)[C@H](CO)N1C(=O)c1cccnc1	1.05 ± 0.12	–
CCS(=O)(=O)N1CC2(C1)[C@@H](c1ccccc1)[C@H](CO)N2Cc1ccc(F)cc1	1.11 ± 0.024	–
C/C=C/c1ccc([C@@H]2[C@@H]3CN(C(=O)Nc4ccccc4F)C[C@H]2N3)cc1	1.15 ± 0.024	–
O=C(C[C@H]1C=C[C@@H](NC(=O)Cc2ccccn2)[C@@H](CO)O1)NCCc1ccncc1	1.14 ± 0.016	–
OC[C@@H]1[C@@H](c2ccc(C#CC3(O)CCCC3)cc2)[C@H]2CN(Cc3cncnc3)CCCCN12	1.02 ± 0.046	–
COCC(=O)N1[C@H](CO)[C@H](c2ccc(C#CCC3CCCC3)cc2)[C@@H]1C#N	0.971 ± 0.046	–
CO[C@@H](CN(C)C(=O)c1ccc2c(c1)OCO2)[C@@H](C)CN([C@H](C)CO)S(=O)(=O)c1ccc(Cl)cc1	1.11 ± 0.016	–
C/C=C/c1cnc2c(c1)C(=O)N([C@@H](C)CO)C[C@@H](C)[C@@H](CN(C)C(=O)Nc1cccc(OC)c1)O2	1.06 ± 0.016	–
N#C[C@H]1N[C@H](CO)[C@H]1c1ccc(C2=CCCC2)cc1	1.25 ± 0.072	–

Compound	viability index [1]	viability index (library set: Broad Institute Blood Stage)
N#C[C@@H]1[C@@H](c2ccccc2-c2cccc(F)c2)[C@@H](CO)N1C(=O)CN1CCOCC1	1.2 ± 0.06	–
CN(C)Cc1cn(CC[C@H]2CC[C@@H](NC(=O)Cc3cccnc3)[C@H](CO)O2)nn1	0.979 ± 0.021	–
C[C@@H]1CN([C@@H](C)CO)C(=O)c2ccccc2-c2ccccc2CO[C@@H]1CN(C)C(=O)c1cc(Cl)cc(Cl)c1	1.02 ± 0.0065	–
Cc1cc(C(=O)Nc2cccc3c2O[C@@H](CN(C)C)[C@H](C)CN([C@H](C)CO)C3=O)n(C)n1	0.9615 ± 0.0061	–
Cc1ccccc1-c1ccc([C@H]2[C@H]3CN(S(=O)(=O)Cc4ccccc4)CCCCN3[C@H]2CO)cc1	0.894 ± 0.069	–
CCCN1C[C@H](C)[C@H](OC)CN(C)C(=O)c2ccc(NS(=O)(=O)c3cn(C)cn3)cc2OC[C@@H]1C	1.02 ± 0.064	–
COCC(=O)N1C[C@]2(CCN(Cc3ccccc3)CC2)c2c([nH]c3cc(OC)ccc23)[C@H]1CO	1.024 ± 0.0051	–
O=C1N[C@@H](Cc2ccccc2)COCc2cnnn2CC[C@@H]1Cc1ccc(-c2ccccc2)cc1	1.06 ± 0.025	–
CN1C(=O)c2cc(NC(=O)c3ccc(C(F)(F)F)cc3)ccc2OC[C@@H]2O[C@H](CC(=O)NCc3ccc4c(c3)OCO4)CC[C@H]21	1.16 ± 0.027	–
C[C@@H](O)C#Cc1ccc([C@@H]2[C@H](CO)N3CCCCN(CC4CC4)C[C@@H]23)cc1	1.01 ± 0.03	–
CO[C@H]1CN(C)C(=O)c2cc(NC(C)=O)ccc2OC[C@H](C)N(Cc2ccncc2)C[C@@H]1C	0.937 ± 0.066	–
COCC(=O)Nc1ccc2c(c1)[C@H]1C[C@@H](CC(=O)N3CCOCC3)O[C@@H](CO)[C@H]1O2	1.13 ± 0.083	–
COc1ccccc1CN1[C@@H](CO)[C@@H]2c3ccccc3N(C(=O)c3cccnc3)C[C@@H]21	1.07 ± 0.011	–
CO[C@@H]1CN(C)C(=O)c2cc(NC(=O)c3cnccn3)ccc2OC[C@@H](C)NC[C@@H]1C	1.0046 ± 0.0004	–
CCCNC(=O)N1C[C@@H](C)[C@H](OC)CN(C)C(=O)c2ccc(NC(=O)CC)cc2OC[C@H]1C	1.09 ± 0.047	–
CO[C@H]1CN(C)C(=O)c2ccc(NS(C)(=O)=O)cc2OC[C@H](C)N(C(=O)CN(C)C)C[C@H]1C	0.958 ± 0.02	–
C[C@@H]1CN([C@@H](C)CO)C(=O)c2cc(NC(=O)Nc3ccc4c(c3)OCO4)ccc2O[C@@H](C)CCCCO[C@@H]1CN(C)S(=O)(=O)c1ccccc1	1.03 ± 0.046	–
CCS(=O)(=O)NCC[C@@H]1CC[C@@H](NS(=O)(=O)c2ccccc2C)[C@@H](CO)O1	1.02 ± 0.049	–
CN1CCN(C(=O)[C@H]2[C@H](CO)[C@H]3Cn4c(ccc(-c5ccncc5)c4=O)[C@H]3N2CC2CC2)CC1	0.999 ± 0.12	–
CN1CCN(C(=O)C[C@H]2CC[C@@H]3[C@@H](COc4ccc(NC(=O)c5cccs5)cc4C(=O)N3C)O2)CC1	0.986 ± 0.047	–
C[C@@H]1CN([C@H](C)CO)C(=O)c2c(c3ccccc3n2C)-c2ccccc2CO[C@@H]1CN(C)S(=O)(=O)c1ccccc1C#N	1.03 ± 0.014	–
C[C@H]1C/C=C/C[C@H](c2cccc(Cl)c2)NC(=O)[C@H](Cc2ccccc2)N(C)C(=O)c2ccccc2O1.C[C@H]1C/C=C\C[C@H](c2cccc(Cl)c2)NC(=O)[C@H](Cc2ccccc2)N(C)C(=O)c2ccccc2O1	0.894 ± 0.1	–
